From PubChem BioAssay AID1159614 (National Center for Advancing Translational Sciences (NCATS), 2016)
In all, about 45,000 compounds went through this assay and about 65 (0.1%) were called active. The call rests on the fitted dose curve; in most records, active means well fitted activation curve with a large enough effect; inconclusive means small, poorly fitted or top-dose-only effect; inactive means no such curve, though single readings can be large or run the other way. The list shows a part of the results.

Biological target: Galactocerebrosidase (Homo sapiens) (UniProt P54803)
Assay: A Novel Cell-Based Assay to Identify Small Molecules for B -Galactocerebrosidase; further: 0% is about no effect; nearly all actives have a fitted effect of over 65% in size
Conditions: 145M-Twi-hGALC-G270D cells, HMU-beta-Gal fluorescence, 48 h; series mostly up to 57.5 µM; activation: at the top concentration
How it was run: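 qHTS, 1536-well; 145M-Twi-hGALC-G270D cells (WT line also made) in DMEM/F12 + 10% FBS; compound incubation on live cells; HMU-β-gal 0.1 mM final, pH 5.2, NaTC; carbonate stop; fluorescence increase = enhanced residual activity.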

UniProt P54803, sequence (P54803 whole entry, looked up): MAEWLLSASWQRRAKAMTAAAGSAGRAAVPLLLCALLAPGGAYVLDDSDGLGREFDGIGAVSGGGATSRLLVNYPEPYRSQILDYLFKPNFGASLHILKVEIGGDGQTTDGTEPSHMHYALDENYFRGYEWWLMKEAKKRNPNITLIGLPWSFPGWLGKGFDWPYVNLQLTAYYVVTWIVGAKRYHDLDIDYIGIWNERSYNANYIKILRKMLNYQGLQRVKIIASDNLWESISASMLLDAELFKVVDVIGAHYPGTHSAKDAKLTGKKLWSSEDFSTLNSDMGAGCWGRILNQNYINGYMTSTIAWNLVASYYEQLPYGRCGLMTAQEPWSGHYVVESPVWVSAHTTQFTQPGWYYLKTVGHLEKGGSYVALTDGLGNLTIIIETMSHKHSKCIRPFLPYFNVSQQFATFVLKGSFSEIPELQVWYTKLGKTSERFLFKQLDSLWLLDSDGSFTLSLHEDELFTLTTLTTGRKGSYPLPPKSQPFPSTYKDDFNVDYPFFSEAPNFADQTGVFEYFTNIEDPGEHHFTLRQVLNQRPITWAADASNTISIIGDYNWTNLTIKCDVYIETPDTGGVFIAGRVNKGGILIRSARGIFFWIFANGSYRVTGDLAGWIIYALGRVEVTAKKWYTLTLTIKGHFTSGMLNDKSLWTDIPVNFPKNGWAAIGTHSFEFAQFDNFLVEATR

activation, inactive:
O=C(Nc1ccc(F)c(F)c1)C1CCCN(S(=O)(=O)c2cccc3nonc23)C1 (configuration not stated) -18%
Cc1ccc(C)c(N2CCN(C(=O)CN3C(=O)CSc4c3c(C)nn4-c3ccccc3)CC2)c1 -12.5%
COc1ccccc1NC(=O)CSCc1cc(=O)c2c(C)cc(C)cc2[nH]1 -24.2%
COc1ccc(C(=O)CCC(=O)Nc2ccccc2C)cc1 -14.7%
CC(C)(C)C1CCc2nc(NC(=O)Cc3ccc(Cl)cc3)sc2C1 (configuration not stated) -22.5%
CCC(Sc1nncn2c1cc1sccc12)C(=O)Nc1cccc(OC)c1 (configuration not stated) -5.53%
Cc1cccc(NC(=O)C2CCCN(S(=O)(=O)c3c(C)noc3/C=C/N(C)C)C2)c1C (configuration not stated) -8.15%
COc1ccc(N(C)C(=O)NCc2noc3ccc(C)cc23)c(OC)c1 -13.9%
CCCNC(=O)Nc1cc(C(=O)NCc2cccc(OCC)c2)ccc1N1CCCC1 -9.76%
Cc1cc(C)c2c(=O)cc(CSCC(=O)Nc3nnc(C)s3)[nH]c2c1 7.32%
Cc1cc2nc3c(=O)n(C)c(=O)n(C)c3nc2cc1N=CN(C)C -4.3%
CCOC(=O)CC(NC(=O)Cn1nnc(-c2ccccc2C)n1)c1ccc(OC)cc1 (configuration not stated) -10.2%
CCC(=O)N1CCc2cc(Br)cc(S(=O)(=O)CCC(=O)Nc3ccccc3C)c21 -3.1%
C/C(=C(\CCOP(=O)(O)O)SC(=O)c1ccccc1)N(C=O)Cc1cnc(C)nc1N -8.51% [at 5.77 µM]
Cc1ccc(CN2CCN(C3CCN(C(=O)OC(C)(C)C)CC3)C(=O)C2=O)cc1 -0.364%
CCN(CC)CCCNC(=O)c1oc2c(c1C)-c1nn(Cc3ccc(Cl)cc3)cc1CC2 -11.1%
Cc1ccc2occ(CC(=O)Nc3ccc(S(N)(=O)=O)cc3)c2c1 -11.6%
COc1ccc(NC(=O)CCc2c(C)nn(-c3ccc(N4CCOCC4)nn3)c2C)cc1Cl 2.01%
COc1ccc(-c2nc(SCC(=O)NCCCc3ccccc3)n[nH]2)cc1 -5.18%
CCOc1ccc(C2c3c(-c4ccccc4O)n[nH]c3C(=O)N2Cc2ccncc2)cc1 (configuration not stated) -7.47%
CCc1ccc(C(=O)c2cn(CC(=O)Nc3ccc(F)cc3)c3cc4c(cc3c2=O)OCO4)cc1 -16.4%
Cc1cc(OCC(=O)Nc2sc3c(c2C(N)=O)CCCC3)ccc1C(C)C 5.4%
Cc1cccc(-c2noc(C3CC(=O)N(c4ccc5c(c4)OCCO5)C3)n2)c1 (configuration not stated) -16.9%
Cc1ccc(N(CC(=O)NC(C)c2ccccc2)S(=O)(=O)c2c(C)noc2C)cc1 (configuration not stated) -18.2%
COc1ccc(NC(=O)Cn2c(C)c3cnn(-c4ccccc4)c(=O)c3c2C)c(OC)c1 -16.5%
CN(C(=O)CCNC(=O)Cn1cnc2ccccc2c1=O)c1ccccc1F -1.53%
CCCn1c(=O)n(-c2ccccc2)c(=O)c2sc3ccccc3c21 -10.3%
CCOc1ccc(CCNC(=O)CN2CCN(Cc3ccc(F)cc3Cl)C2=O)cc1OCC -13%
C=CCc1c(C)nc2nc(SCC(=O)Nc3ccccc3CC)nn2c1C -12.7%
COc1cccc(-c2nc3c(c(SCc4ccccc4)n2)Cc2c(CO)cnc(C)c2O3)c1 -13.8%
NC(=O)c1cc(S(=O)(=O)NCc2ccccc2)cs1 4.68%
CC(C)Cc1nn2c(=O)cc(COC(=O)c3cccc(NC(=O)CCc4ccccc4)c3)nc2s1 -20.2%
C=Cc1ccc(CSc2nc(-c3ccc(OC)cc3)nc3c2Cc2c(CO)cnc(C)c2O3)cc1 -3.74%
CCOC(=O)CSc1nc2cc3c(cc2c(=O)n1CCCC(=O)NCc1ccc2c(c1)OCO2)OCO3 -5.26%
CCCOc1ccccc1C(=O)N1CCC(c2nc3ccccc3s2)CC1 -12.1%
NCCc1nnc(SCc2ccc(Cl)cc2)o1 -0.451%
COc1ccccc1C(=O)Nc1nc2ccc(S(=O)(=O)N3CCCC3)cc2s1 -10.9%
COc1ccc(C(=O)CN2C(=O)N(c3cc(C)cc(C)c3)S(=O)(=O)c3ccccc32)cc1 -7.55%
Clc1ccc(CCNc2ncnc3c2c(-c2ccccc2)cn3-c2ccccc2)cc1 -11.8%
COc1cc(C(=O)Nc2cc(C)ccc2OCc2cc(=O)n3cc(C)sc3n2)cc(OC)c1OC -3.83%
CCOC(=O)c1ccc(Nc2c(-c3ccc(O)cc3)nc3nc[nH]n23)cc1 -11.2%
Cc1ccccc1CS(=O)(=O)Cc1ccc(C(=O)NCCc2ccccc2)o1 -8.78%
COc1ccccc1CNC(=O)Cn1ncc2c(=O)oc3ccc(C)cc3c21 -21%
Cc1ccc(Nc2c(-c3ccc(C)cc3)nc3cnccn23)cc1 0.848%
CCCCC(=O)Nc1cccc(OCc2cc(=O)n3ccccc3n2)c1 -4.72%
CC(=O)Nc1c(C)nn(-c2ccccc2)c1N1CCC(C(=O)Nc2cc(Cl)ccc2C)CC1 1.89%
CCc1ccccc1NC(=O)c1cc(S(=O)(=O)NCCc2ccc(OC)c(OC)c2)ccc1F -28.4%
CCOc1ccc(NC(=O)C(C)Sc2nnc3cc(C)c4ccccc4n23)cc1 (configuration not stated) -9.69%
Cc1nnc(NC(=O)c2nc(S(=O)(=O)Cc3ccccc3)ncc2Cl)s1 -17.2%
CCOC(=O)c1ccc(NC(=O)c2oc3ccc4c(c3c2C)C(=O)CC(C)(CC)O4)cc1 (configuration not stated) -33.3%
Cc1ccc(NC(=O)CSc2nc3c(c(=O)[nH]2)CN(Cc2ccc4c(c2)OCO4)CC3)cc1C -11.7%
Cn1c(=O)c2c(SCC(=O)NCc3ccco3)nc(-c3ccccc3Cl)nc2n(C)c1=O -13.2%
CCOC(=O)C1CCCN(c2ncnc3c2cnn3-c2ccc(C)c(Cl)c2)C1 (configuration not stated) -24.2%
CC(C)c1ccc(CNCCSc2nnnn2C)cc1 -19.3%
COc1ccc(C)cc1NC(=O)C(=O)NCCc1csc(-c2ccc(C)cc2)n1 -5.79%
C=C[C@@]1(C)CC(=O)[C@]2(O)[C@@]3(C)[C@@H](O)CCC(C)(C)[C@@H]3[C@H](O)[C@H](OC(C)=O)[C@@]2(C)O1 -11.6%
O=C(O)[C@@H]1CSCN1 -4.58%
Cc1cc2nc3ccc(=[N+](C)C)cc-3sc2cc1N -7.6%
CCCOc1ccc(C2c3c(-c4ccccc4O)n[nH]c3C(=O)N2Cc2ccncc2)cc1OCC (configuration not stated) -11.8%
Cc1cccc(NC(=O)C(=O)NCC(c2cccnc2)N2CCOCC2)c1 (configuration not stated) -10%
O=C(Cc1ccc(F)cc1)N1CCC(c2nc3c(nnn3Cc3ccc(Cl)cc3)c(=O)[nH]2)CC1 -8.86%

Potency, inactive:
CCN(CC)C(=S)SSC(=S)N(CC)CC
